# The other results are listed elsewhere or left out.
# B1: B1257 (Bifidobacterium sp) (protein)
# chain: MKKSIRLVAAIAALAMTAGISACGSSTNGNQAKSDVTAQDVETALTDTSKNVELTVWAYSAKQMEPTVKAFEKKYPHIKINFVNTGAAGDHFTKFQNVVQAQKDIPDVVQMGANKFQQFAVSGALLNFANDSIEKAWSKLYTKTAWAQVHYAGGLYGAPQDATPLANYVRKDILDEHNLQVPESWEDIYNEGIKLHKEDSNKYMGILGSDISFFTNLYRSVGARLWKVNSVDDVELTMNSGKAKEFTEFLQKCLKDGVLEGGTVFTDEFNRSINDGRYATFINENWMGNTYKEQNPSLKGKMVVAAPPSWKGQPYQSSSVGSMMSVSAACPKEKQAAALAFINWLDSDKDAIQSWQDTNNGNFFMAASVYQDDENQRNKKETDGYYANDDVNAVYFDSMDKVNTDWEYLPFMSQVEVVFNDVIVPQMNENGDLVGAMAKAQQELKTYAKDNGFKVTTDAD
# What was measured:
# Experiment in all cases: glycan array binding signal (z-score within array); higher = stronger binding
# Conditions in all cases: glycan notation: IUPAC condensed, linker removed
# [1] = biological target: GlcNAc(b1-2)[GlcNAc(b1-6)]Man(a1-6)[GlcNAc(b1-4)][GlcNAc(b1-2)Man(a1-3)]Man(b1-4)GlcNAc(b1-4)GlcNAc
# How it was run: (§1)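 The Consortium for Functional Glycomics database supplied 3228 glycan arrays, of which those lacking an available protein sequence were dropped. The binding signal, a within-array Z-score, was averaged across arrays of the same protein sequence and across linkers. Negative scores can be read as non-binding.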
# GlcNAc(b1-3)Fuc = biological target: GlcNAc(b1-3)Fuc
# How it was run: as §1
# GlcNAc(b1-3)Gal = biological target: GlcNAc(b1-3)Gal
# How it was run: as §1
# [2] = biological target: GlcNAc(b1-3)Gal(b1-3)GalNAc
# How it was run: as §1
# GlcNAc(b1-3)Gal(b1-4)Glc = biological target: GlcNAc(b1-3)Gal(b1-4)Glc
# How it was run: as §1
# [3] = biological target: GlcNAc(b1-3)Gal(b1-4)GlcNAc
# How it was run: as §1
# [4] = biological target: GlcNAc(b1-3)Gal(b1-4)GlcNAc(b1-2)Man(a1-3)[GlcNAc(b1-3)Gal(b1-4)GlcNAc(b1-2)Man(a1-6)]Man(b1-4)GlcNAc(b1-4)GlcNAc
# How it was run: as §1
# [5] = biological target: GlcNAc(b1-3)Gal(b1-4)GlcNAc(b1-2)Man(a1-3)[GlcNAc(b1-3)Gal(b1-4)GlcNAc(b1-2)Man(a1-6)]Man(b1-4)GlcNAc(b1-4)[Fuc(a1-6)]GlcNAc
# How it was run: as §1
# [6] = biological target: GlcNAc(b1-3)Gal(b1-4)GlcNAc(b1-2)[GlcNAc(b1-3)Gal(b1-4)GlcNAc(b1-6)]Man(a1-6)[GlcNAc(b1-3)Gal(b1-4)GlcNAc(b1-2)Man(a1-3)]Man(b1-4)GlcNAc(b1-4)GlcNAc
# How it was run: as §1
# [7] = biological target: GlcNAc(b1-3)Gal(b1-4)GlcNAc(b1-3)Gal(b1-4)GlcNAc
# How it was run: as §1
# [8] = biological target: GlcNAc(b1-3)Gal(b1-4)GlcNAc(b1-3)Gal(b1-4)GlcNAc(b1-2)Man(a1-3)[GlcNAc(b1-3)Gal(b1-4)GlcNAc(b1-3)Gal(b1-4)GlcNAc(b1-2)Man(a1-6)]Man(b1-4)GlcNAc(b1-4)GlcNAc
# How it was run: as §1
# [9] = biological target: GlcNAc(b1-3)Gal(b1-4)GlcNAc(b1-3)Gal(b1-4)GlcNAc(b1-2)Man(a1-3)[GlcNAc(b1-3)Gal(b1-4)GlcNAc(b1-3)Gal(b1-4)GlcNAc(b1-2)Man(a1-6)]Man(b1-4)GlcNAc(b1-4)[Fuc(a1-6)]GlcNAc
# How it was run: as §1
# [10] = biological target: GlcNAc(b1-3)Gal(b1-4)GlcNAc(b1-3)Gal(b1-4)GlcNAc(b1-2)[GlcNAc(b1-3)Gal(b1-4)GlcNAc(b1-3)Gal(b1-4)GlcNAc(b1-6)]Man(a1-6)[GlcNAc(b1-3)Gal(b1-4)GlcNAc(b1-3)Gal(b1-4)GlcNAc(b1-2)Man(a1-3)]Man(b1-4)GlcNAc(b1-4)[Fuc(a1-6)]GlcNAc
# How it was run: as §1
# [11] = biological target: GlcNAc(b1-3)Gal(b1-4)GlcNAc(b1-3)Gal(b1-4)GlcNAc(b1-3)Gal(b1-4)GlcNAc(b1-2)Man(a1-3)[GlcNAc(b1-3)Gal(b1-4)GlcNAc(b1-3)Gal(b1-4)GlcNAc(b1-3)Gal(b1-4)GlcNAc(b1-2)Man(a1-6)]Man(b1-4)GlcNAc(b1-4)GlcNAc
# How it was run: as §1
# [12] = biological target: GlcNAc(b1-3)Gal(b1-4)GlcNAc(b1-3)Gal(b1-4)GlcNAc(b1-3)Gal(b1-4)GlcNAc(b1-2)Man(a1-3)[GlcNAc(b1-3)Gal(b1-4)GlcNAc(b1-3)Gal(b1-4)GlcNAc(b1-3)Gal(b1-4)GlcNAc(b1-2)Man(a1-6)]Man(b1-4)GlcNAc(b1-4)[Fuc(a1-6)]GlcNAc
# How it was run: as §1
# [13] = biological target: GlcNAc(b1-3)Gal(b1-4)GlcNAc(b1-3)Gal(b1-4)GlcNAc(b1-3)Gal(b1-4)GlcNAc(b1-2)[GlcNAc(b1-3)Gal(b1-4)GlcNAc(b1-3)Gal(b1-4)GlcNAc(b1-3)Gal(b1-4)GlcNAc(b1-6)]Man(a1-6)[GlcNAc(b1-3)Gal(b1-4)GlcNAc(b1-3)Gal(b1-4)GlcNAc(b1-3)Gal(b1-4)GlcNAc(b1-2)Man(a1-3)]Man(b1-4)GlcNAc(b1-4)[Fuc(a1-6)]GlcNAc
# How it was run: as §1
# [14] = biological target: GlcNAc(b1-3)Gal(b1-4)GlcNAc(b1-3)Gal(b1-4)GlcNAc(b1-3)Gal(b1-4)GlcNAc(b1-3)Gal(b1-4)GlcNAc(b1-2)Man(a1-3)[GlcNAc(b1-3)Gal(b1-4)GlcNAc(b1-3)Gal(b1-4)GlcNAc(b1-3)Gal(b1-4)GlcNAc(b1-3)Gal(b1-4)GlcNAc(b1-2)Man(a1-6)]Man(b1-4)GlcNAc(b1-4)GlcNAc
# How it was run: as §1
# [15] = biological target: GlcNAc(b1-3)Gal(b1-4)GlcNAc(b1-3)Gal(b1-4)GlcNAc(b1-3)Gal(b1-4)GlcNAc(b1-3)Gal(b1-4)GlcNAc(b1-2)Man(a1-3)[GlcNAc(b1-3)Gal(b1-4)GlcNAc(b1-3)Gal(b1-4)GlcNAc(b1-3)Gal(b1-4)GlcNAc(b1-3)Gal(b1-4)GlcNAc(b1-2)Man(a1-6)]Man(b1-4)GlcNAc(b1-4)[Fuc(a1-6)]GlcNAc
# How it was run: as §1
# [16] = biological target: GlcNAc(b1-3)Gal(b1-4)GlcNAc(b1-3)Gal(b1-4)GlcNAc(b1-3)Gal(b1-4)GlcNAc(b1-3)Gal(b1-4)GlcNAc(b1-2)[GlcNAc(b1-3)Gal(b1-4)GlcNAc(b1-3)Gal(b1-4)GlcNAc(b1-3)Gal(b1-4)GlcNAc(b1-3)Gal(b1-4)GlcNAc(b1-6)]Man(a1-6)[GlcNAc(b1-3)Gal(b1-4)GlcNAc(b1-3)Gal(b1-4)GlcNAc(b1-3)Gal(b1-4)GlcNAc(b1-3)Gal(b1-4)GlcNAc(b1-2)Man(a1-3)]Man(b1-4)GlcNAc(b1-4)[Fuc(a1-6)]GlcNAc
# How it was run: as §1
binder,measurement,setting,value
B1,glycan array binding signal (z-score),[1],0.005
same,glycan array binding signal (z-score),GlcNAc(b1-3)Fuc,-0.127
same,glycan array binding signal (z-score),GlcNAc(b1-3)Gal,-0.097
same,glycan array binding signal (z-score),[2],-0.113
same,glycan array binding signal (z-score),GlcNAc(b1-3)Gal(b1-4)Glc,-0.088
same,glycan array binding signal (z-score),[3],-0.138
same,glycan array binding signal (z-score),[4],-0.045
same,glycan array binding signal (z-score),[5],0.25
same,glycan array binding signal (z-score),[6],0.067
same,glycan array binding signal (z-score),[7],-0.154
same,glycan array binding signal (z-score),[8],0.228
same,glycan array binding signal (z-score),[9],0.082
same,glycan array binding signal (z-score),[10],0.092
same,glycan array binding signal (z-score),[11],-0.027
same,glycan array binding signal (z-score),[12],-0.011
same,glycan array binding signal (z-score),[13],0.099
same,glycan array binding signal (z-score),[14],-0.069
same,glycan array binding signal (z-score),[15],-0.048
same,glycan array binding signal (z-score),[16],0.001

# Reference: the supplement of paper PMC8728848
